Hit rate of the full screen: of about 360,000 compounds, about 7,500 (2.1%) were called active. Inconclusive means that the source gave no clear call. Such entries were picked first, then a sample of the others. Calls follow the shape of the dose curve; as a rule, active = well fitted cell-killing curve with a large enough effect; inconclusive = small, poorly fitted or top-dose-only effect, or effect the other way, or another doubt; inactive = no such curve, though single readings can be large or run the other way. Potencies of inconclusive entries are left out as doubtful fits.
Assay: qHTS for induction of synthetic lethality in tumor cells producing 2HG: qHTS for the HT-1080-IDH1KD cell line;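 as to activity, negative = toxicity: 0% = DMSO wells and -100% = cell-free medium wells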
Details: HT-1080 IDH1 knockdown viability, ATP luminescence, 48 h; activity, negative = toxicity: at 46.1 µM (top of the series) unless noted
Procedure, shortened: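 IDH1KD HT-1080 cells, 750/well, RPMI + 5% FBS; compound pinned after 2 h settling; 48 h, 37 °C; CellTiter-Glo luminescence; % activity normalised to DMSO and no-cell wells; curves fitted, classed by r2 and efficacy.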
Potency is read from the fitted curve at half-maximal effect; tags tell the direction and shape of the fitted curve.

Compound | Potency | activity, negative = toxicity
CSc1ccc(/C=N/NC(=O)c2ccc3nc[nH]c3c2)cc1 | inconclusive [cytotoxic, single point] | –
Cc1nn(C)c(NC(=O)c2ccc(Cl)cc2)c1Cl | inconclusive [cytotoxic, single point] | –
COc1cnn(-c2ccc([N+](=O)[O-])cc2)c(=O)c1Cl | inconclusive [cytotoxic, single point] | –
CCOc1ccc(N(CC(=O)Nc2ccc(OC)cc2)C2=NC3CS(=O)(=O)CC3S2)cc1 (configuration not stated) | – | inactive: -8.99%
CCCCn1c(N)c(N(CCC(C)C)C(=O)COC(=O)c2ccc([N+](=O)[O-])s2)c(=O)[nH]c1=O | inconclusive [cytotoxic, single point] | –
Cc1ccc(S(C)(=O)=O)cc1C(=O)NC(C)C1CC2CCC1C2 (configuration not stated) | – | inactive: -7.92%
COc1cc(C(=O)NCc2ccc(C)cc2)ccc1OCc1c(C)noc1C | – | inactive: -3.18%
COc1ccc(C(NC(=O)CN2C(=O)NC3(CCc4ccccc43)C2=O)c2ccccc2)cc1 (configuration not stated) | inconclusive [cytotoxic, single point] | –
CCOC(=O)C1CCCN(C(=O)c2ccccc2)CC1 (configuration not stated) | – | inactive: 1.21%
CC(C)(C)NCC(O)CON=C1c2ccccc2-c2ccccc21 (configuration not stated) | active: 14.6 µM | –
CCOc1ccc2[nH]c(C(=O)N/N=C/c3ccccc3OC)cc2c1 | inconclusive [cytotoxic, full curve] | –
CCC(C)Sc1ccc([C@H]2N[C@@](Cc3ccccc3)(C(=O)OC)[C@H]3C(=O)N(CC)C(=O)[C@@H]23)cc1 (some centres not stated) | – | inactive: -10.8%
CCOc1ccccc1N1C(=O)c2ccccc2N/C1=C\N1CCN(C(=O)c2ccco2)CC1 | – | inactive: -8.09%
CC(=O)/C(C#N)=C1\NC(=O)C(Cc2ccccc2)S1 (configuration not stated) | inconclusive [cytotoxic, single point] | –
CCOC(=O)c1c(NC(=O)CC)sc(C(=O)NC2CCCC2)c1C | – | inactive: 7.51%
Cc1ccc(S(=O)(=O)N(C)Cc2ccc(C(=O)NN=C3C4CC5CC(C4)CC3C5)cc2)cc1 | – | inactive: 1%
O=C(Nc1ccc(Cl)cc1)C1CCCCN1S(=O)(=O)c1ccccc1 (configuration not stated) | inconclusive [cytotoxic, partial curve, poor fit] | –
O=C(c1oc2ccccc2c1N1CCCCC1)N1CCCCC1 | – | inactive: -15.2%
O=C(Nc1ccc(F)cc1)Nc1nnc([C@H]2C[C@H](O)[C@@H](CO)O2)s1 | – | inactive: -1.05%
Cc1sc(NC(=O)CCl)c(C(=O)c2ccccc2)c1C | inconclusive [cytotoxic, partial curve, poor fit] | –
CC(=O)c1cccc(NC(=O)C2Cc3c(-c4ccccc4Oc4ccccc4)ccnc3O2)c1 (configuration not stated) | inconclusive [cytotoxic, single point] | –
COC(=O)c1cc(=O)n(Cc2ccc3c(c2)OCO3)c(=Nc2ccccc2)s1 | inconclusive [cytotoxic, single point] | –
CN(C)S(=O)(=O)N1CCCC(C(=O)c2ccc(C(F)(F)F)cc2)C1 (configuration not stated) | – | inactive: -6.42%
CC(=O)C1=C(c2ccccc2)N(C(C)=O)n2c(C)nnc2S1 | inconclusive [cytotoxic, single point] | –

Compound | Potency | activity, negative = toxicity
Cc1cc(C)cc(N(C(=O)Cc2cccs2)C(C(=O)NC2CCCC2)c2ccc(C)o2)c1 (configuration not stated) | – | inactive: 1.65%
COc1ccc(C2CC3(CC(C)(C)NC(=O)N3)Oc3cc(O)ccc32)cc1 (configuration not stated) | – | inactive: 6.47%
Nc1nc(N)c2cc(S(=O)(=O)c3ccc4ccccc4c3)ccc2n1 | active: 3.26 µM | –
O=C(N/N=C/c1ccncc1)c1cccs1 | – | inactive: -0.0212%
COc1ccc(NC(=O)c2cc([N+](=O)[O-])ccc2O)cc1 | inconclusive [cytotoxic, single point] | –
CN1CCc2c(C#N)c(N3CCCCC3)nc(NCc3ccccc3)c2C1 | inconclusive [cytotoxic, single point] | –
CC(C)(C)c1ccc(C(=O)NNC(=O)C(=O)N2CCCCC2)cc1 | inconclusive [cytotoxic, single point] | –
CCn1c(C(=O)OC)cc2c1ccn2-c1ccc(F)cc1 | inconclusive [cytotoxic, single point] | –
CCOC(=O)c1ccc(-c2ccc(/C=N/NC(=O)CN(c3ccccc3Br)S(C)(=O)=O)o2)cc1 | inconclusive [cytotoxic, partial curve] | –
CCCCN(Cc1ccccc1)S(=O)(=O)c1cc2c(cc1Br)CC(C)N2C(C)=O (configuration not stated) | – | inactive: -13.4%
Cc1ccc(C)c(Sc2ccc(S(=O)(=O)Nc3ccc(C(=O)O)cc3)cc2)c1 | – | inactive: 0.837%
CCOc1ccc(N/C=C/C(=O)c2ccccc2)c([N+](=O)[O-])c1 | inconclusive [cytotoxic, single point] | –
COc1cc(C(=O)OCC(C)=O)ccc1OCc1c(C)noc1C | active: 18.4 µM | –
CCOc1ccc(-c2cc(C(=O)Nc3ccc4c(c3)OCCO4)c3ccccc3n2)cc1 | inconclusive [cytotoxic, partial curve] | –
Cc1ccc(NC(=O)CSc2nnc(-c3n[nH]c4ccccc34)n2-c2ccccc2)c(C)c1 | inconclusive [cytotoxic, single point] | –
COc1ccc(-c2[nH]ncc2-c2ccc(Cl)cc2)c(O)c1 | inconclusive [cytotoxic, single point] | –
CN(C)c1ccc(-c2ccnc3c2CC(C)(C(=O)Nc2ccc(Cl)c(C(F)(F)F)c2)O3)cc1 (configuration not stated) | inconclusive [cytotoxic, single point] | –
Cn1c(CNc2ccc(Cl)cc2)nnc1SCc1ccccc1 | – | inactive: -7.8%
CCCc1nc2c(C)cc(Br)cn2c1Cc1ccccc1C(F)(F)F | inconclusive [cytotoxic, single point] | –
N#C/C(=C\c1cccnc1)c1ccc([N+](=O)[O-])cc1 | – | inactive: -3.43%
O=C(Nc1ccc2nc(-c3cccs3)c(-c3cccs3)nc2c1)NC1CC1 | inconclusive [cytotoxic, single point] | –
COc1ccc(OCC(=O)Nc2cccc(OC)c2)cc1 | – | inactive: -25.1%
Cc1ccc(S(=O)(=O)c2nc(-c3ccccc3Cl)oc2NCCCN2CCOCC2)cc1 | – | inactive: 15.1%
Cc1cc(C)c2c(c1)/C(=C/C(=O)c1ccc(Br)s1)C(=O)N2 | inconclusive [cytotoxic, single point] | –

Compound | Potency | activity, negative = toxicity
Cc1cc(NC(=O)c2ccccc2)sc1C | inconclusive [cytotoxic, partial curve] | –
CCCCC1Cc2[nH]c(=S)[nH]c(=O)c2C(c2ccc3ccccc3c2)O1 (configuration not stated) | inconclusive [cytotoxic, single point] | –
CN1C(c2ccc(F)cc2)=CS/C1=C(\C#N)c1nnc2n1-c1ccccc1SC2 | inconclusive [rising, single point] | –
COC(=O)C(NC(=O)c1ccccc1C)(Nc1ncc(S(=O)(=O)c2ccc([N+](=O)[O-])cc2)s1)C(F)(F)F (configuration not stated) | inconclusive [cytotoxic, single point] | –
O=C(O)CCc1nn2c3ccccc3nc2n(Cc2ccccc2)c1=O | inconclusive [rising, partial curve] | –
Cc1cccnc1NC(=O)c1cccc(S(=O)(=O)N2CCN(c3ccc(F)cc3)CC2)c1 | active: 29.1 µM | –
O=C1C2(CCC13COC(c1ccc(O)cc1)OC3)COC(c1ccc(O)cc1)OC2 (configuration not stated) | inconclusive [cytotoxic, single point] | –
COc1ccc(NC(=O)Cc2ccc(C)c(C)c2)cc1S(=O)(=O)N1CCCCC1 | – | inactive: -8.15%
COc1ccc(/C=N/NC(=O)c2cccnc2)cc1CN1CCOCC1 | – | inactive: -3.82%
Cc1ccc(-c2nnc(NC(=O)C3=COCCO3)o2)c(C)c1 | – | inactive: -0.525%
Cc1ccccc1Nc1nc(N)nc(CN(C)Cc2ccccc2Cl)n1 | inconclusive [cytotoxic, partial curve] | –
O=C(CCn1cccn1)N1CCCC(Nc2ccc(F)c(F)c2)C1 (configuration not stated) | – | inactive: 1.08%
CCOc1cc(C)c(C(C)C)cc1S(=O)(=O)n1cnc(C)c1 | active: 11.6 µM | –
O=S1(=O)c2cccc3cccc(c23)N1Cc1nnc(-c2ccccc2Br)o1 | inconclusive [cytotoxic, single point] | –
CN(C)CCC=C1c2ccccc2C=Cc2ccccc21 | inconclusive [cytotoxic, single point] | –
CC(=O)NC1=NN(C(C)=O)C(C)(c2ccc(Cl)s2)S1 (configuration not stated) | active: 2.31 µM | –
O=C(NCCc1ccccc1)c1ccc(Cl)cc1[N+](=O)[O-] | – | inactive: -4.68%
CC1CC(N(C(=O)c2ccc(Cl)cc2)c2ccccc2)c2ccccc2N1C(=O)c1ccco1 (configuration not stated) | inconclusive [cytotoxic, single point] | –
CN(C)C(=S)N=c1ssc(=S)n1Cc1ccccc1 | active: 8.2 µM | –
COc1ccc(-c2c[n+]3c(n2-c2ccccc2)CCCCC3)cc1 | inconclusive [cytotoxic, single point] | –
CCOc1cc(-c2noc(-c3ccncc3)n2)cc(Br)c1OC | inconclusive [cytotoxic, single point] | –
Cc1cn([C@@H](CCCCNC(=O)OC(C)(C)C)C(=O)NCCCCCCCCCCC(=O)N2CCN(C(=O)OC(C)(C)C)CC2)nn1 | inconclusive [cytotoxic, single point] | –
Cc1c(C(=O)NCc2cccc(C(F)(F)F)c2)sc(=O)n1Cc1cccc(F)c1 | inconclusive [cytotoxic, single point] | –
COc1cc(/C=N/N=C(/N)c2nonc2N)cc(Br)c1OCc1ccccc1C | inconclusive [cytotoxic, single point] | –

From PubChem BioAssay AID686971 (National Center for Advancing Translational Sciences (NCATS), 2013)
